{"source": "paper PMC4336329", "about": "(PLoS ONE, 2015)", "note": "About 2,200 (0.71%) of roughly 310,000 compounds showed an effect of 50% or more. Effects have a minus sign here. Some of the results follow."}
{"biological_target": "human ether-à-go-go-related gene (hERG) potassium channel (human, UniProt Q12809)", "sequence (Q12809 whole entry, looked up)": "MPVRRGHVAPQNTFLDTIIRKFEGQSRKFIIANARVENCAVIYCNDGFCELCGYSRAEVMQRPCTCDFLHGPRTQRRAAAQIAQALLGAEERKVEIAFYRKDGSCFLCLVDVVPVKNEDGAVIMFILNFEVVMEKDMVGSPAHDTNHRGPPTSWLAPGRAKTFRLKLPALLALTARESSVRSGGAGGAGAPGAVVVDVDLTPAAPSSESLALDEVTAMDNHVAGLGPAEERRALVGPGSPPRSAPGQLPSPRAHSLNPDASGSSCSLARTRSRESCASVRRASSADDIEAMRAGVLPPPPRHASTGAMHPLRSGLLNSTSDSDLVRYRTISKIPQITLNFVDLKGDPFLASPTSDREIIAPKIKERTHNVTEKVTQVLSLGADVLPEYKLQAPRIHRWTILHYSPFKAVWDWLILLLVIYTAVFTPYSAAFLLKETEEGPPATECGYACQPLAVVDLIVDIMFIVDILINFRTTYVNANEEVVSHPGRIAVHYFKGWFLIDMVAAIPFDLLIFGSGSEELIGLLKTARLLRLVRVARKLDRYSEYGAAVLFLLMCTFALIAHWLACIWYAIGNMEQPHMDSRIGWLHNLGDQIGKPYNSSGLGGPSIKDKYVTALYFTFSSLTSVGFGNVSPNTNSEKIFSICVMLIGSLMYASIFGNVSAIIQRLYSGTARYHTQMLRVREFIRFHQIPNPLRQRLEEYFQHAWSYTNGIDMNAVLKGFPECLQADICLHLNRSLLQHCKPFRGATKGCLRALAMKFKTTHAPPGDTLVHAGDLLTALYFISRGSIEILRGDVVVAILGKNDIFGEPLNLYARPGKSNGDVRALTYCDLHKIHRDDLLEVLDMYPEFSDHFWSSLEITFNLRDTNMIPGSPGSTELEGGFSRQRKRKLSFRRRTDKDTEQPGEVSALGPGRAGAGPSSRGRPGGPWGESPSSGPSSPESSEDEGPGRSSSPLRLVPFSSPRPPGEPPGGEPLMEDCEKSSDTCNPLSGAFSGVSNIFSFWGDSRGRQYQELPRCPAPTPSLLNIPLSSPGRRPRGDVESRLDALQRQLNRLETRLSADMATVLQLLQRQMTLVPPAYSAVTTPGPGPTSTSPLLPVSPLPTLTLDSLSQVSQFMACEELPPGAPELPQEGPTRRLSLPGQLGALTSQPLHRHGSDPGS", "assay": "primary screen, population patch clamp on CHO cells stably expressing hERG", "units": {"hERG current change (%, negative = inhibition) at 1uM": "%"}}
{"smiles": "CCOC(=O)C1CCCN(c2nc3ccccc3nc2C(C#N)C(=O)OC(C)COC)C1", "note": "(stereo not shown)", "hERG current change (%, negative = inhibition) at 1uM": 9.3}
{"smiles": "COc1cc(Cl)c(NS(=O)(=O)c2cc3[nH]c(=O)c(=O)[nH]c3cc2C)c(OC)c1", "hERG current change (%, negative = inhibition) at 1uM": 7.29}
{"smiles": "Cc1c(C(=O)N2CCC(C)CC2)cccc1[N+](=O)[O-]", "hERG current change (%, negative = inhibition) at 1uM": 0.407}
{"smiles": "Cc1ccc(C2(C)NC(=O)N(CC(=O)NNC(=O)c3ccccc3F)C2=O)cc1", "note": "(stereo not shown)", "hERG current change (%, negative = inhibition) at 1uM": -1.89}
{"smiles": "CC1CCCC(NC(=O)COC(=O)Cc2ccc(Br)cc2)C1C", "note": "(stereo not shown)", "hERG current change (%, negative = inhibition) at 1uM": 12.3}
{"smiles": "COc1ccc(-n2cc(CNC(C)c3ccncn3)c(-c3cccc(F)c3)n2)cc1", "note": "(stereo not shown)", "hERG current change (%, negative = inhibition) at 1uM": -3.56}
{"smiles": "N#Cc1c(Cl)cccc1-n1ccnc1", "hERG current change (%, negative = inhibition) at 1uM": 3.17}
{"smiles": "CN(C)c1ccc(C(=O)OCc2ccccc2)cc1", "hERG current change (%, negative = inhibition) at 1uM": 14}
{"smiles": "CCOC(=O)C1=C(C)NC(=O)CC1c1ccccc1OC", "note": "(stereo not shown)", "hERG current change (%, negative = inhibition) at 1uM": 12}
{"smiles": "COc1ccccc1NC(=O)Cn1c(=O)oc2cc(S(=O)(=O)N3CCCC3)ccc21", "hERG current change (%, negative = inhibition) at 1uM": 16.4}
{"smiles": "CC(=O)C1=C(O)C(=O)N(CCN2CCOCC2)C1c1ccc(N(C)C)cc1.Cl", "note": "(stereo not shown)", "hERG current change (%, negative = inhibition) at 1uM": 3.95}
{"smiles": "CCc1cc(C)cc(OCCOc2ccccc2/C=N/NC(C)=O)c1", "hERG current change (%, negative = inhibition) at 1uM": 11.6}
{"smiles": "COc1cccc(OCC(=O)O/N=C(\\N)c2ccc(OC)c(OC)c2)c1", "hERG current change (%, negative = inhibition) at 1uM": 9.32}
{"smiles": "CC(C)c1ccccc1NC(=O)CC1(CC(=O)O)CCCC1", "hERG current change (%, negative = inhibition) at 1uM": -1.31}
{"smiles": "COc1cccc2[nH]c(=O)c(-c3ccccc3)cc12", "hERG current change (%, negative = inhibition) at 1uM": 11.7}
{"smiles": "Cc1cc(C(=O)COC(=O)c2ccc[nH]c2=O)c(C)n1-c1ccc(Br)cc1", "hERG current change (%, negative = inhibition) at 1uM": 3.19}
{"smiles": "COc1ccccc1Nc1nc(C)cc(C)c1C(N)=O", "hERG current change (%, negative = inhibition) at 1uM": 7.52}
{"smiles": "CCN(CC)c1ccc2cc(C(=O)Nc3ccccn3)c(=O)oc2c1", "hERG current change (%, negative = inhibition) at 1uM": 14.9}
{"smiles": "COc1ccc(-c2cc(C(=O)NCc3cccnc3)no2)cc1", "hERG current change (%, negative = inhibition) at 1uM": -12.3}
{"smiles": "CN(C)CC(NC(=O)c1cccc(S(=O)(=O)Nc2ccc3c(c2)OCO3)c1)c1ccccc1", "note": "(stereo not shown)", "hERG current change (%, negative = inhibition) at 1uM": 1.07}
{"smiles": "O=C1Nc2ccc(S(=O)(=O)NCc3ccco3)c3cccc1c23", "hERG current change (%, negative = inhibition) at 1uM": -13.8}
{"smiles": "CCOCCCn1c(SCC(=O)Nc2cc(C(C)(C)C)nn2-c2ccccc2)nc2ccccc2c1=O", "hERG current change (%, negative = inhibition) at 1uM": -6.54}
{"smiles": "CC1=CC2=NC(=O)/C(=C\\c3cc(C)n(-c4ccccc4F)c3C)C(=N)N2O1", "hERG current change (%, negative = inhibition) at 1uM": 8.4}
{"smiles": "O=C(O)c1cncc(C#CCC2CCCCC2)c1", "hERG current change (%, negative = inhibition) at 1uM": 3.72}
{"smiles": "CC(=O)c1ccc(NC(=O)c2ccccc2Sc2ncnc3sc(C)c(C)c23)cc1", "hERG current change (%, negative = inhibition) at 1uM": -2.71}
{"smiles": "O=C(Nc1ccc(N2CCCCC2)cc1)c1ccc2c(c1)OCCO2", "hERG current change (%, negative = inhibition) at 1uM": -0.219}
{"smiles": "COc1cccc(NC(C)C(=O)Nc2cc([N+](=O)[O-])ccc2Cl)c1", "note": "(stereo not shown)", "hERG current change (%, negative = inhibition) at 1uM": 6.75}
{"smiles": "C/C(=N\\O)C1/C(=N/O)CC2C1C2(C)C", "note": "(stereo not shown)", "hERG current change (%, negative = inhibition) at 1uM": -1.61}
{"smiles": "CC(Sc1nnc(C2CC2)n1C1CC1)C(=O)Nc1cccc(S(=O)(=O)N(C)C)c1", "note": "(stereo not shown)", "hERG current change (%, negative = inhibition) at 1uM": 6.02}
{"smiles": "Cc1ccccc1N(C(=O)Cn1nnc2ccccc21)C(C(=O)NCc1ccco1)c1ccncc1", "note": "(stereo not shown)", "hERG current change (%, negative = inhibition) at 1uM": 5.11}
{"smiles": "COc1ccc(CNC(=O)COC(=O)CCc2c[nH]c3ccccc23)cc1", "hERG current change (%, negative = inhibition) at 1uM": 11.2}
{"smiles": "Cc1nc(Nc2nc(CSc3nc4ccccc4[nH]3)cc(=O)[nH]2)nc2ccccc12", "hERG current change (%, negative = inhibition) at 1uM": 13.6}
{"smiles": "CC1(C)CC(NC(=O)CCc2ccccc2)CC(C)(C)N1.Cl", "hERG current change (%, negative = inhibition) at 1uM": 9.57}
{"smiles": "O=C(Nc1cccnc1)c1cccnc1Cl", "hERG current change (%, negative = inhibition) at 1uM": 11.1}
{"smiles": "CCCCOc1ccc(C(C)=O)cc1Cc1c(O)[nH]c(=S)[nH]c1=O", "hERG current change (%, negative = inhibition) at 1uM": 14.8}
{"smiles": "COc1ccc(CN(CC(=O)NCc2ccc(F)cc2)C(=O)CCC(=O)Nc2cc(C)ccn2)cc1", "hERG current change (%, negative = inhibition) at 1uM": -3.3}
{"smiles": "O=C(COC(=O)c1cc([N+](=O)[O-])ccc1NCc1ccccc1)NC1CCCc2ccccc21", "note": "(stereo not shown)", "hERG current change (%, negative = inhibition) at 1uM": 12.2}
{"smiles": "CCOc1cc(C(=O)NC)cc(Br)c1OCc1ccccc1", "hERG current change (%, negative = inhibition) at 1uM": 6.47}
{"smiles": "CCOc1ccccc1NC(=O)COn1nnc2ccc(Cl)cc21", "hERG current change (%, negative = inhibition) at 1uM": 6.27}
{"smiles": "CCc1ccc(N2C(=O)C3C(C2=O)N2CCCN2C3c2ccccc2)cc1", "note": "(stereo not shown)", "hERG current change (%, negative = inhibition) at 1uM": 19.7}
{"smiles": "CCN(CC)S(=O)(=O)c1cccc(-c2nnc(SCc3nnc(-c4cccs4)o3)n2N)c1", "hERG current change (%, negative = inhibition) at 1uM": -1.29}
{"smiles": "c1ccc(-c2noc(-c3cccnc3)n2)cc1", "hERG current change (%, negative = inhibition) at 1uM": 5.79}
{"smiles": "CN(C)CCCN=Cc1c(O)n(CCc2ccc(F)cc2)c(=O)[nH]c1=O", "hERG current change (%, negative = inhibition) at 1uM": 14.7}
{"smiles": "Cc1ccc(/C=C/C(=O)Nc2cc(S(N)(=O)=O)ccc2O)cc1", "hERG current change (%, negative = inhibition) at 1uM": -20.6}
{"smiles": "Cc1ccc(N(C(=O)c2csnn2)C(C(=O)NC2CCCCC2)c2cccnc2)cc1C", "note": "(stereo not shown)", "hERG current change (%, negative = inhibition) at 1uM": 11.5}
{"smiles": "Cc1c(NC(=S)NC(=O)C(C)(C)C)c(=O)n(-c2ccccc2)n1C", "hERG current change (%, negative = inhibition) at 1uM": 2.33}
{"smiles": "Cc1ccc(C(=O)OCC(=O)NCc2ccco2)s1", "hERG current change (%, negative = inhibition) at 1uM": 15.9}
{"smiles": "CC12CC[C@H]3[C@@H](CCC4(O)C[C@H](O)CCC34/C=N/NC(=O)c3ccccc3F)C1(O)CCC2C1=CC(=O)OC1", "note": "(stereo partly shown)", "hERG current change (%, negative = inhibition) at 1uM": 11.7}
{"smiles": "CCC(C)C(=O)Nc1cc([N+](=O)[O-])ccc1Cl", "note": "(stereo not shown)", "hERG current change (%, negative = inhibition) at 1uM": 7.76}
{"smiles": "CSc1ncccc1C(=O)OCC(=O)N(CC(C)C)c1c(N)n(Cc2ccccc2)c(=O)[nH]c1=O", "hERG current change (%, negative = inhibition) at 1uM": 10.6}
{"smiles": "N#C/C(=C\\c1cn(Cc2ccccc2F)c2ccccc12)C(=O)NCc1ccco1", "hERG current change (%, negative = inhibition) at 1uM": 11.7}
{"smiles": "Cc1cc(/C=C2\\C(=O)NC(=O)N(c3ccc(Cl)cc3)C2=O)c(C)n1-c1cccc(C(=O)O)c1", "hERG current change (%, negative = inhibition) at 1uM": 14.9}
{"smiles": "c1ccc2c(c1)CCNC2c1ccncc1", "note": "(stereo not shown)", "hERG current change (%, negative = inhibition) at 1uM": 16.1}
{"smiles": "O=C(COC(=O)Cc1n[nH]c(=O)c2ccccc12)Nc1ccc(Cl)cn1", "hERG current change (%, negative = inhibition) at 1uM": 8.19}
{"smiles": "COc1ccc(CC(C#N)(CO)c2nc3ccccc3[nH]2)cc1", "note": "(stereo not shown)", "hERG current change (%, negative = inhibition) at 1uM": 2.2}
